Patent publication US9783610B2

Key:
[1] = molecular target: human TEM1 (endosialin, CD248) on cells (human) (UniProt Q9HCU0); test: live cell-based ELISA on MS1-TEM1 cells; reference scFv78
[2] = molecular target: human TEM1 (endosialin, CD248) on cells (human) (UniProt Q9HCU0); test: live cell-based ELISA on MS1-TEM1 cells (as restated in the radiolabeling section)
[3] = molecular target: human TEM1 (endosialin, CD248) on cells (human) (UniProt Q9HCU0); test: live cell-based ELISA, binding to MS1-TEM1 minus binding to MS1 cells, HA-HRP detection
[4] = molecular target: human TEM1 (endosialin, CD248) on cells (human) (UniProt Q9HCU0); test: binding of 125I-labeled scFv78-Fc to MS1-TEM1 cells

| fold lower KD than scFv78 [1] [fold] | Kd [2] [nM] | Kd [3] [nM] | Kd [4] [nM] | Binder |
| --- | --- | --- | --- | --- |
| 15 | 0.15 | 0.14 |  | Anti-TEM1 scFv78-Fc (Fc fusion) VQPVLTQPPSLSASPGASASLTCTLRSDINVGSYRISWYQQKPGSPPQYLLSYISDSDKQKGSGVPSRFSGSKDASANAGILLISGLQSEDEADYYCMIWHNSAGVFGGGTKLTVLGGGSSRSSSSGGGGSGGGGQVQLQESGGTLVQPGGSLRLSCEASGFTFSNYAMGWVRQTPGKGLEWLSAIRKSGTTTYYADSVKGRFIISRDNSKNTLYLQMNRLRVGDTATYYCATHPIAGYWGQGTLVTVSSASTKGPSVGGGSLIK[… human IgG1 Fc …] |
|  |  |  | 1 | 125I-labeled scFv78-Fc (Fc fusion, 125I label (site not stated)) VQPVLTQPPSLSASPGASASLTCTLRSDINVGSYRISWYQQKPGSPPQYLLSYISDSDKQKGSGVPSRFSGSKDASANAGILLISGLQSEDEADYYCMIWHNSAGVFGGGTKLTVLGGGSSRSSSSGGGGSGGGGQVQLQESGGTLVQPGGSLRLSCEASGFTFSNYAMGWVRQTPGKGLEWLSAIRKSGTTTYYADSVKGRFIISRDNSKNTLYLQMNRLRVGDTATYYCATHPIAGYWGQGTLVTVSSASTKGPSVGGGSLIK[… human IgG1 Fc …] |
